Laboratory results taken from the supplement of paper PMC11876631.
Laboratory Escherichia coli strains with one amino-acid change in an essential protein, pooled on minimal glucose agar with carbenicillin or gentamicin at twice the control MIC (plus kanamycin and chloramphenicol for the plasmids), 48 h. Fold change of barcode share against drug-free plates; higher = less susceptible. Active = above 20 in both replicates (the paper's putatively resistant). '<' = one read or none on drug, '>' = one read or none on a drug-free plate. Shares are relative, so most strains fall below 1 when a few take over. Listed are strains with at least 15 reads on both drug-free plates, and hits; most hits rest on fewer reference reads. Replicate rank correlation about 0.5. Edits are read from barcodes.

What follows are proteins tested against Escherichia coli (laboratory strain) (assay: barcode share on antibiotic plates over drug-free plates; higher = less susceptible). Conditions: antibiotic: gentamicin; 2× MIC (MIC 0.45 µg/mL).
Description: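 A pool of E. coli strains, each edited to carry one amino-acid change in an essential protein, was grown for 48 h on minimal glucose agar with or without antibiotic; strain barcodes were sequenced; mean of two replicates.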

Protein	fold change of barcode share
ispG V59Q (protein) MHNQAPIQRRKSTRIYVGNVPIGDGAPIAVQSMTNTRTTDVEATVNQIKALERVGADIQRVSVPTMDAAEAFKLIKQQVNVPLVADIHFDYRIALKVAEYGVDCLRINPGNIGNEERIRMVVDCARDKNIPIRIGVNAGSLEKDLQEKYGEPTPQALLESAMRHVDHLDRLNFDQFKVSVKASDVFLAVESYRLLAKQIDQPLHLGITEAGGARSGAVKSAIGLGLLLSEGIGDTLRVSLAADPVEEIKVGFDILKSLRIRSRGINFIACPTCSRQEFDVIGTVNALEQRLEDIITPMDVSIIGCVVNGPGEALVSTLGVTGGNKKSGLYEDGVRKDRLDNNDMIDQLEARIRAKASQLDEARRIDVQQVEK	> 191 [active]
kdsA I93A (protein) MKQKVVSIGDINVANDLPFVLFGGMNVLESRDLAMRICEHYVTVTQKLGIPYVFKASFDKANRSSIHSYRGPGLEEGMKIFQELKQTFGVKIATDVHEPSQAQPVADVVDVIQLPAFLARQTDLVEAMAKTGAVINVKKPQFVSPGQMGNIVDKFKEGGNEKVILCDRGANFGYDNLVVDMLGFSIMKKVSGNSPVIFDVTHALQCRDPFGAASGGRRAQVAELARAGMAVGLAGLFIEAHPDPEHAKCDGPSALPLAKLEPFLKQMKAIDDLVKGFEELDTSK	< 0.0181
aroA L250Q (protein) MESLTLQPIARVDGTINLPGSKSVSNRALLLAALAHGKTVLTNLLDSDDVRHMLNALTALGVSYTLSADRTRCEIIGNGGPLHAEGALELFLGNAGTAMRPLAAALCLGSNDIVLTGEPRMKERPIGHLVDALRLGGAKITYLEQENYPPLRLQGGFTGGNVDVDGSVSSQFLTALLMTAPLAPEDTVIRIKGDLVSKPYIDITLNLMKTFGVEIENQHYQQFVVKGGQSYQSPGTYLVEGDASSASYFQAAAAIKGGTVKVTGIGRNSMQGDIRFADVLEKMGATICWGDDYISCTRGELNAIDMDMNHIPDAAMTIATAALFAKGTTTLRNIYNWRVKETDRLFAMATELRKVGAEVEEGHDYIRITPPEKLNFAEIATYNDHRMAMCFSLVALSDTPVTILDPKCTAKTFPDYFEQLARISQAA	< 0.0131
kdsA I92A (protein) MKQKVVSIGDINVANDLPFVLFGGMNVLESRDLAMRICEHYVTVTQKLGIPYVFKASFDKANRSSIHSYRGPGLEEGMKIFQELKQTFGVKAITDVHEPSQAQPVADVVDVIQLPAFLARQTDLVEAMAKTGAVINVKKPQFVSPGQMGNIVDKFKEGGNEKVILCDRGANFGYDNLVVDMLGFSIMKKVSGNSPVIFDVTHALQCRDPFGAASGGRRAQVAELARAGMAVGLAGLFIEAHPDPEHAKCDGPSALPLAKLEPFLKQMKAIDDLVKGFEELDTSK	< 0.0195
kdsB V82D (protein) MSFVVIIPARYASTRLPGKPLVDINGKPMIVHVLERARESGAERIIVATDHEDVARAVEAAGGEVCMTRADHQSGTERLAEDVEKCAFSDDTVIVNVQGDEPMIPATIIRQVADNLAQRQVGMATLAVPIHNAEEAFNPNAVKVVLDAEGYALYFSRATIPWDRDRFAEGLETVGDNFLRHLGIYGYRAGFIRRYVNWQPSPLEHIEMLEQLRVLWYGEKIHVAVAQEVPGTGVDTPEDLERVRAEMR	< 0.0195
kdsB I46W (protein) MSFVVIIPARYASTRLPGKPLVDINGKPMIVHVLERARESGAERIWVATDHEDVARAVEAAGGEVCMTRADHQSGTERLAEVVEKCAFSDDTVIVNVQGDEPMIPATIIRQVADNLAQRQVGMATLAVPIHNAEEAFNPNAVKVVLDAEGYALYFSRATIPWDRDRFAEGLETVGDNFLRHLGIYGYRAGFIRRYVNWQPSPLEHIEMLEQLRVLWYGEKIHVAVAQEVPGTGVDTPEDLERVRAEMR	< 0.0153
kdsB V95D (protein) MSFVVIIPARYASTRLPGKPLVDINGKPMIVHVLERARESGAERIIVATDHEDVARAVEAAGGEVCMTRADHQSGTERLAEVVEKCAFSDDTVIDNVQGDEPMIPATIIRQVADNLAQRQVGMATLAVPIHNAEEAFNPNAVKVVLDAEGYALYFSRATIPWDRDRFAEGLETVGDNFLRHLGIYGYRAGFIRRYVNWQPSPLEHIEMLEQLRVLWYGEKIHVAVAQEVPGTGVDTPEDLERVRAEMR	< 0.0165
aroA L31A (protein) MESLTLQPIARVDGTINLPGSKSVSNRALLAAALAHGKTVLTNLLDSDDVRHMLNALTALGVSYTLSADRTRCEIIGNGGPLHAEGALELFLGNAGTAMRPLAAALCLGSNDIVLTGEPRMKERPIGHLVDALRLGGAKITYLEQENYPPLRLQGGFTGGNVDVDGSVSSQFLTALLMTAPLAPEDTVIRIKGDLVSKPYIDITLNLMKTFGVEIENQHYQQFVVKGGQSYQSPGTYLVEGDASSASYFLAAAAIKGGTVKVTGIGRNSMQGDIRFADVLEKMGATICWGDDYISCTRGELNAIDMDMNHIPDAAMTIATAALFAKGTTTLRNIYNWRVKETDRLFAMATELRKVGAEVEEGHDYIRITPPEKLNFAEIATYNDHRMAMCFSLVALSDTPVTILDPKCTAKTFPDYFEQLARISQAA	< 0.0147
